Assay results taken from PubChem BioAssay AID1508623 (National Center for Advancing Translational Sciences (NCATS), 2021).
The campaign covered roughly 48,000 compounds. About 450 (0.94%) were called active. About 19% were inconclusive and are not listed. The call rests on the fitted dose curve; in most records, active means well fitted inhibition curve with a large enough effect; inconclusive means small, poorly fitted or top-dose-only effect; inactive means no such curve, though single readings can be large or run the other way. Some of the results follow.

Experiment: Primary qHTS for Identification of Small Molecule Inhibitors of Huntingtin Promoter Activity; further: nearly all actives have a fitted effect of over 50% in size
Details: HEK293 HTT promoter firefly luciferase reporter (activity 0% = vehicle and -100% = no light), 24 h; series mostly up to 57.5 µM; activity change, negative = inhibition: at the top concentration
Summary of the method: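 HEK293 cells carrying firefly luciferase reporters were seeded at 2,500 per well in Opti-MEM and cultured for 24 h. They were then treated with compounds at up to 57.5 uM final for 24 h at 37 degrees C before Dual-Glo luminescence readout.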

Activity change, negative = inhibition, inactive:
CCc1ccc(NC(=O)COCc2cc(-c3ccc(F)cc3)on2)cc1 14.4%
CCc1ccccc1-n1c2c(cc(-c3nc(-c4ccc(Cl)cc4)cs3)c1=O)C(=O)CC(C)(C)C2 -13.2%
O=C(COc1ccc(F)cc1)NC1CC(=O)N(c2ccc3c(c2)OCCO3)C1 (configuration not stated) -11.5%
COc1cccc(NC(=O)C2CCN(c3cc(C)nc4c(-c5ccc(Cl)cc5)c(C)nn34)CC2)c1 -16.2%
Cc1ccc(-c2nn3c(=O)cc(CN4CCN(S(=O)(=O)c5ccc(Cl)cc5)CC4)nc3s2)cc1 -22.2%
CCOc1ccc(OCC)c(NS(=O)(=O)c2ccc3[nH]c(=O)ccc3c2)c1 -16%
CC(NC(=O)C1=Cc2ccccc2OC1)c1ccccc1 (configuration not stated) -25.1%
CC(=O)Nc1ccc(NC(=O)Cn2c(=O)ccc3cc(S(=O)(=O)N4CCC(C)CC4)ccc32)cc1 1.07%
COc1ccc(C(=O)N2CCN(c3nc4c(C)c(Cl)ccc4s3)CC2)c(OC)c1 -5.46%
CCCCNc1nc2c(c(=O)n(Cc3ccccc3)c(=O)n2C)n1C -4.92%
COc1ccc(N(C)C(=O)c2cc3c(s2)-c2ccccc2OC3)cc1 -8.41%
Cc1cc(C(=O)Nc2cccc(C)c2C)c2c(C)nn(-c3cccc(F)c3)c2n1 -10.2%
O=C(NCc1ccc(Cl)cc1)c1ccc2c(c1)N(Cc1ccccc1F)C(=O)c1ccccc1S2=O (configuration not stated) -17.3%
CCOc1ccccc1-c1nc(C(N)=O)c2c(n1)n(-c1ccc3c(c1)OCO3)c(=O)n2C -8.99%
CC(=O)Nc1ccc(S(=O)(=O)N(Cc2ccccc2)Cc2ccccc2)cc1 -28.8%
CCn1c(=O)cc(SCC(=O)NCc2ccc(C)cc2)c2ccccc21 -6.62%
C=Cc1ccc(Cn2c(=O)n(CC3CCC(C(=O)NC(C)C)CC3)c(=O)c3sccc32)cc1 (configuration not stated) -8.72%
CCCCNC(=O)c1ccc2c(c1)NC(=O)C(CS(=O)(=O)Cc1ccc(F)cc1Cl)N2 (configuration not stated) -17.2%
COc1cccc(-c2ccc3c(N)c(C(=O)Nc4ccccc4C)sc3n2)c1 -17.7%
CC(C)CCNC(=O)c1ccc2c(c1)nc1n2CCCCC1 -19.9%
CCCC(=O)Nc1ccc2nc(SCc3ccc(C)cc3)sc2c1 -17%
COc1ccc(C)cc1NC(=O)Cc1c(C(=O)O)c(C)cn1C -13.7%
Nc1ccc2oc(Cc3ccc(Cl)cc3)nc2c1 -9.85%
COCCNc1ccc(-c2nc(-c3ccccn3)no2)cc1[N+](=O)[O-] 54.1%
CC(C)CCn1c(=O)c2sccc2n2c(CCCC(=O)NC(C)c3ccccc3)nnc12 (configuration not stated) -12.3%
CC(=O)c1cccc(NC(=O)CSc2nc3c(=O)n(C)c(=O)n(C)c3n2C)c1 3.71%
Cn1cc(CNCC2CCN(c3ncc(C(=O)NO)cn3)CC2)c2ccccc21 242%
Cc1cccc(OCC(=O)Nc2ccccc2C(=O)OCc2cc(=O)n3nc(C4CC4)sc3n2)c1 -9.26%
Cc1ccc(CCNC(=O)c2cc3c(=O)n(C)c4ccccc4c3n2C)cc1 -5.86%
CC(=O)[C@H]1CC[C@H]2[C@@H]3CCC4=CC(=O)CC[C@]4(C)[C@H]3CC[C@]12C -25.7%
Cc1cccc(N2CCN(c3nc4ccccc4c4nc(-c5cccnc5)nn34)CC2)c1C -6.96%
CCn1cc(C(=O)Nc2ccc(C(C)C)cc2)c2cc(OC)c(OC)cc2c1=O -25.1%
CCc1cccc(N2C(=O)N(Cc3c(F)cccc3Cl)c3ccccc3S2(=O)=O)c1 -9.52%
Cc1ccc2cc3cc(C(=O)N(C)c4ccccc4C)oc3nc2c1 40.7%
CCOC(=O)c1ccc(NC(=O)c2c(NCc3cc(OC)ccc3OC)sc3c2CCC3)cc1 1.68%
COc1ccc(-c2noc(CSc3nnc(-c4ccccc4)n3C)n2)cc1 -14.8%
CC(C)OCCCNC(=O)c1nn(C)c2c1CSc1ccccc1-2 -1.14%
CCCOC(=O)c1ccc(Nc2c(C(=O)OCC)cnc3c(C)cc(Cl)cc23)cc1 -13.8%
COc1ccc(C)cc1NC(=O)CN1CCN(S(=O)(=O)c2ccc(Br)cc2)CC1 -10.3%
COc1ccc(NC(=O)C2CCC(CNS(=O)(=O)c3cccs3)CC2)cc1OC (configuration not stated) -2.02%
Clc1ccccc1-c1nnc(-c2ccccc2CNc2ccccc2)o1 14.4%
COc1ccccc1CNC(=O)c1cc2ccc3ccc(C)[nH]c3c2n1 -28.2%
CCN1CCc2c(sc(-n3cccc3)c2C(C)NC(=O)Nc2ccccc2C)C1 (configuration not stated) -24.7%
Cc1cccc(CC(=O)Nc2cccc(-c3nc4cccnc4s3)c2)c1 19.9%
OC(CN1CCC(Cc2ccc(F)cc2)CC1)c1ccc(Cl)cc1 (configuration not stated)
Cc1cccc(Oc2ccc(NC(=O)CCC(=O)OCC(=O)c3ccc(Br)cc3)cc2)c1C -16.3%
COc1cccc(C(C(=O)NCc2ccccc2)N(C(=O)Cn2nnc3ccccc32)c2cccc(C(C)=O)c2)c1 (configuration not stated) -8.49%
COc1cc(C2c3c(-c4ccccc4O)n[nH]c3C(=O)N2CCO)ccc1OCC(C)C (configuration not stated) -21.3%
COc1ccc(Cc2c(C)nn(-c3nc(C)c(C(=O)Nc4ccc(C)cc4C)s3)c2C)cc1 -5.51%
CCCCc1ccc(NC(=O)CSc2nnc3[nH]c(=O)cc(C)n23)cc1 0.414%
CCCN1CCN(CCCNC(=O)c2ccc(CS(=O)c3ccc(OC)cc3)o2)CC1 (configuration not stated) 16%
CCN(CC)CCNC(=O)c1cc2c(=O)oc3ccc(C)cc3c2s1 -5.98%
CCCN(CCC)C(=O)CSc1nnc2cc(C)c3ccccc3n12 -6.76%
Cc1ccc(NC(=O)Cn2nnc3sc4c(c3c2=O)CCCC4)c(C)c1 -1.16%
Cc1cc(C)c(Cn2c3ccccc3c3cnn(CC(=O)NCC(C)c4ccccc4)c(=O)c32)c(C)c1 (configuration not stated) -12%
CCn1cc(C(=O)NCc2ccc(F)cc2)c(=O)c2cc(S(=O)(=O)N(C)C)ccc21 -20.3%
COc1cc(OC)c(NC(=O)CCNS(=O)(=O)c2ccc3c(c2)oc(=O)n3C)cc1Cl 22.3%
COc1ccc(-n2c(CCC(=O)O)ccc2-c2ccccc2)c(OC)c1 2.81%
Cc1cc(Cl)ccc1NC(=O)c1cc2ccccn2n1 1.2%
Cc1ccc(CNC(=O)CSC2=Nc3ccccc3C3=NC(C)C(=O)N23)cc1 (configuration not stated) -30%
CC(=O)Nc1cccc(NC(=O)C(=O)NCCc2csc3nc(-c4ccccc4F)nn23)c1 0%
CCOC(=O)c1ccccc1NC(=O)c1nn(C)c2c1COc1ccccc1-2 -16.7%
CC(C)CCNC(=O)c1cn(C)c2ccc(S(=O)(=O)N3CCOCC3)cc2c1=O -21.6% [at 11.5 µM]
COc1ccccc1N1CCN(S(=O)(=O)c2ccc(-c3cnc(C4CC4)o3)cc2)CC1 -9.11%
CCc1cccc(NC(=O)CCS(=O)(=O)c2cc3c4c(c2)CCN4C(=O)CC3)c1 -10.9%
Cc1cccc(C(=O)Nc2cccc(OCc3cc(=O)n4ccccc4n3)c2)c1 12.8%
COc1cc2c(cc1OC)C(COc1ccccc1OC)N(C(=O)c1ccccc1OC)CC2 (configuration not stated) -24.8%
Cc1cc(C)c(NC(=O)Cn2c(=O)n(Cc3ccccc3)c(=O)c3c(C)c(C(=O)N(C)C)sc32)c(C)c1 -22.6%
COc1cc2c(=O)c(S(=O)(=O)c3ccccc3)cn(CC(=O)Nc3ccccc3C)c2cc1OC -14.8%
COc1cc(OC)c(NC(=O)c2c3c(nc4ccccc24)C(=O)N(C2CCCCC2)C3)cc1Cl -28.3%
CCOc1ccccc1NC(=O)CN1CCN(S(=O)(=O)c2ccc(Br)cc2)CC1 -13.4%
CCC1CCCCN1Cc1cn2c(-c3ccc(Br)cc3)nnc2s1 (configuration not stated) 5.37%
CCS(=O)(=O)N1CCc2cc(C(=O)Nc3ccc(OC)cc3OC)ccc21 -11.9%
CC(=O)c1cccc(NC(=O)c2nc(-c3ccccc3)n(-c3cccc(C)c3)n2)c1 6.82%
COc1c(Cl)cc(Cl)cc1CNCCSc1nnnn1C -8.16%
CCC(C)NC(=O)CSc1nc2cc3c(cc2c(=O)n1CCCCCC(=O)NCc1ccc(OC)cc1)OCO3 (configuration not stated) -10.9%
CCOc1ccc(C(=O)N2CCN(Cc3cc(=O)n4nc(-c5cccc(OC)c5)sc4n3)CC2)cc1 -12.3%
CCOCCCNC(=O)C(c1ccc(Cl)cc1)N(Cc1ccc2c(c1)OCO2)C(=O)c1ccccc1O (configuration not stated) -27.1%
COc1ccc(-c2nc(S(=O)(=O)c3ccccc3)c(N3CCCCC3)o2)cc1 -1.91%
CCN(Cc1nc(-c2ccc(OC)cc2)oc1C)S(=O)(=O)c1ccc(Cl)cc1 1.52%
COc1ccc(N2CCN(C(=O)c3cccn4c(=O)c5ccc(Cl)cc5nc34)CC2)cc1 -0.663%
Cc1ccccc1CNCCCSc1nnnn1-c1ccccc1 1.33%
Cc1ccc2oc(=O)c3cnn(CC(=O)Nc4ccc(Br)cc4C)c3c2c1 1.85%
CCc1ccccc1NC(=O)C(=O)c1cc(C)n(-c2ccccc2F)c1C -6.74%
O=C(c1ccco1)N(Cc1cccnc1)c1nc2c(F)cccc2s1 -32.8%
Cc1ccc(NCc2nc3ccccc3n2CCOc2ccccc2C)cc1 -24.9%
COc1cc(OC)cc(-c2nc3nc(C)c(CCC(=O)Nc4ccc(C)cc4)c(C)n3n2)c1 3.59%
CCNc1nc2c(c(=O)n(C)c(=O)n2C)n1CC(O)COc1ccccc1 (configuration not stated) -21.9%
COC(=O)c1cc(NC(=O)c2cnc(SC)nc2-c2ccccc2)cc(C(=O)OC)c1 -16.5%
Cc1cc2c(cc1S(=O)(=O)CCC(=O)Nc1ccc(OC(F)(F)F)cc1)OCC(=O)N2 -10.3%
COc1ccc(NC(=O)Nc2cccc(C)n2)c(OC)c1 40%
Cc1c2cnn(CC(=O)O)c(=O)c2c(C)n1Cc1cccc(Cl)c1 -13.6%
O=C(CC1N=C2c3ccccc3N=C(SCc3ccc(Cl)cc3)N2C1=O)NC1CCCCC1 (configuration not stated) 0.982%
Cc1ccc(CNC(=O)COCc2cc(-c3ccc4c(c3)OCO4)on2)cc1 -20.2%
CCOc1ccc(S(=O)(=O)c2cn(Cc3ccc(C)cc3)c3ccc(OC)cc3c2=O)cc1 -32.4%
CCOc1ccc2cc(-c3nnc(Nc4ccccc4F)s3)c(=O)oc2c1 29%
Cc1ccc(-c2cnc(NCc3ccc(C(C)C)cc3)n2C)cc1 -16.1%
